The whole screen tested about 360,000 compounds, of which about 16,000 (4.4%) were called active. The shares of active, inactive and inconclusive entries below differ from those in the screen. The call rests on the fitted dose curve; in most records, active means well fitted inhibition curve with a large enough effect; inconclusive means small, poorly fitted or top-dose-only effect; inactive means no such curve, though single readings can be large or run the other way. Potencies of inconclusive entries are doubtful fits and often do not repeat.
What follows are compounds tested against Bromodomain adjacent to zinc finger domain protein 2B (Homo sapiens) (UniProt Q9UIF8) (assay: qHTS Assay for Inhibitors of BAZ2B). Conditions: AlphaScreen BAZ2B-H3K14Ac peptide displacement; activity change, negative = inhibition: at 114 µM (top of the series) unless noted.
UniProt Q9UIF8, sequence (Q9UIF8 whole entry, looked up, the tested form may be a part): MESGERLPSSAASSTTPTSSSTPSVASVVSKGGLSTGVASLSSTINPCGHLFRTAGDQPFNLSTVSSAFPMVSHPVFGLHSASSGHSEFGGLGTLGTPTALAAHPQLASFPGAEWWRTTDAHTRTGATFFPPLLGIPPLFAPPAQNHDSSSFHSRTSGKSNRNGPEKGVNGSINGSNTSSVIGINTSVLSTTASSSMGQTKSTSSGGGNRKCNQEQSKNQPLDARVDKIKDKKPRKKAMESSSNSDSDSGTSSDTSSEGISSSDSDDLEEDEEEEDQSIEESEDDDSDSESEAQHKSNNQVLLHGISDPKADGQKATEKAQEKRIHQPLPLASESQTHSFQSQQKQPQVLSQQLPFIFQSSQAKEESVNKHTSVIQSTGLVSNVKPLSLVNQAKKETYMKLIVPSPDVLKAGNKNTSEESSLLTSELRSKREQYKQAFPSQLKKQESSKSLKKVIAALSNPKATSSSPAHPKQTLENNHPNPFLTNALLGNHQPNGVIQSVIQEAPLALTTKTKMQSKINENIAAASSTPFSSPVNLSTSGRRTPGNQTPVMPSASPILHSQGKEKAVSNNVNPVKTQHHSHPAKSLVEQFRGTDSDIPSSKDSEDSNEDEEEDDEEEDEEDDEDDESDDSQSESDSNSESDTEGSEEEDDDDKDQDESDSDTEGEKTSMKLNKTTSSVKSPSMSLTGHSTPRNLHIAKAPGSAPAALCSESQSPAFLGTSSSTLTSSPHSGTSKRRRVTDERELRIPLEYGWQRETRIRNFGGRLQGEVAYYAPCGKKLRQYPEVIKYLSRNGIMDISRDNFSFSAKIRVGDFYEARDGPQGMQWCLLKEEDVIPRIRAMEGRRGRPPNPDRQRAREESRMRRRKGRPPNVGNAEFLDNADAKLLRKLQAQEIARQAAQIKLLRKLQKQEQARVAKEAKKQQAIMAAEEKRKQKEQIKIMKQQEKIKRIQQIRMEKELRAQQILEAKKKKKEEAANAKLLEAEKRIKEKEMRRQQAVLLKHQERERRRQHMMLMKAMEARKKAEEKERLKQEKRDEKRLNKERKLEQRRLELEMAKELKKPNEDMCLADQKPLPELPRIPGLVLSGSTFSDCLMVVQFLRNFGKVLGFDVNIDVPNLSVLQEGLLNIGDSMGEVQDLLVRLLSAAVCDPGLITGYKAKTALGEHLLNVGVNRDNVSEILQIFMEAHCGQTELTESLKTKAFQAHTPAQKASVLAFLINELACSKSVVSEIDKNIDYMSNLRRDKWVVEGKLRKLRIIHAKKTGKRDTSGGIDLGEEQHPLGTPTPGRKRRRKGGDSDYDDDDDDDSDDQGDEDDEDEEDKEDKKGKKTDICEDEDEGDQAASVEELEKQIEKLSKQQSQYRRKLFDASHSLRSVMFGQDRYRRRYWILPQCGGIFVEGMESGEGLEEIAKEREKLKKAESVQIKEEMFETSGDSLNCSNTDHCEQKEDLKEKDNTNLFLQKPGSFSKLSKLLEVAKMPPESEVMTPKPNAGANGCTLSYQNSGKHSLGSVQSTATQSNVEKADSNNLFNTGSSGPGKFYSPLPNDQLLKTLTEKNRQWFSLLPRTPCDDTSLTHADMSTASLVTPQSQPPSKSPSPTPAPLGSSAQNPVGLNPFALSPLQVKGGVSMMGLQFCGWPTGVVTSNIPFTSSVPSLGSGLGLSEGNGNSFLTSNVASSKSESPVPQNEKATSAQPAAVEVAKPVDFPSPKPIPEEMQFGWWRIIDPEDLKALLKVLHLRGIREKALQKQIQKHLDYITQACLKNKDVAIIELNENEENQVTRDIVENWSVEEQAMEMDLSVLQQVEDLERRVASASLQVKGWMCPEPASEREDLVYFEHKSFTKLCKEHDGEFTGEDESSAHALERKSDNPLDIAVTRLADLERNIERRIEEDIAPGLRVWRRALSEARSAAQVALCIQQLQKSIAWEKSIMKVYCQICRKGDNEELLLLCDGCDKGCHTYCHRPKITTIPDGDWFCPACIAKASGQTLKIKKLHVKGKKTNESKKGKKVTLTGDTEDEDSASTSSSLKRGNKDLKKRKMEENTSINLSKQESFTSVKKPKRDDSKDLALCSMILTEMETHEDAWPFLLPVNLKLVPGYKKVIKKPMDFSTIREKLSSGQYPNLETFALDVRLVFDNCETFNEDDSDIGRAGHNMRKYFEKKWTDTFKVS
Outline: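 AlphaScreen luminescence quantifies BAZ2B engagement of H3K14Ac peptide; the protein and biotinylated peptide are both at 50 nM final, buffer PBS pH 7.4 with 0.01% Tween-20, all steps at room temperature.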
With Cc1nc(-c2ccc(Cl)cc2)sc1C(=O)CBr the Potency was inconclusive: 50.1 µM [inhibitor, partial curve]. For Nc1nc(COc2ccc(F)cc2)nc(N2CCCCC2)n1, the Potency was inconclusive: 3.55 µM [inhibitor, single point]. In the case of C/C(=C\c1ccccc1)C(=O)Nc1ccc(Cl)cn1, the “activity change, negative = inhibition” value is reported as inactive: 43.7%. C/C(=N\NC(=O)c1ccc(N(C)C)cc1)c1cccnc1 was tested, and the Potency was inconclusive: 89.1 µM [inhibitor, single point]. With COc1ccc(N2CCN(C(=O)c3ccccc3N(C)S(=O)(=O)c3ccccc3)CC2)cc1 the Potency was inconclusive: 44.7 µM [inhibitor, partial curve]. With CCOc1ccc(Nc2nc(N)nc(CCl)n2)cc1 the Potency was inconclusive: 89.1 µM [inhibitor, single point]. For CCOc1ccccc1NC(=O)Cn1c(=O)n(CCCCC(=O)NCCCOC)c(=O)c2ccccc21, the Potency was active: 79.4 µM. In the case of COC(=O)c1sccc1NC(=O)CC1C(=O)NCCN1C(=O)Nc1cc(Cl)ccc1OC (centres undefined), the “activity change, negative = inhibition” value is reported as inactive: -20.4%. In the case of CCOc1ccc(-c2nc(C#N)c(N3CCN(Cc4ccccc4)CC3)o2)cc1, the Potency is reported as inconclusive: 22.4 µM [inhibitor, full curve]. For COc1ccc(OC)c(CCNC(=O)c2cccc(NC3=NC4CS(=O)(=O)CC4S3)c2)c1 (centres undefined), the Potency was inconclusive: 39.8 µM [inhibitor, single point]. With COc1ccc(OC)c(CCNC(=O)c2cc3cccc4c3n2CCS4)c1 the Potency was inconclusive: 50.1 µM [inhibitor, partial curve]. For Cc1ccc(OCC(=O)Nc2nc(C)c(Cl)cc2Cl)c([N+](=O)[O-])n1, the “activity change, negative = inhibition” value was inactive: -0.529%. For CCN(Cc1ccccc1)S(=O)(=O)c1ccc(C(=O)Nc2nnc(C3CC3)o2)cc1, the Potency was inconclusive: 89.1 µM [inhibitor, single point]. In the case of O=C(Nc1ccccc1)N1CCc2scc[n+]2-c2ccccc21, the “activity change, negative = inhibition” value is reported as inactive: -8.24%. For Cc1c(CNCCCc2ccccc2)c(C(=O)O)c(C)n1Cc1ccccc1, the Potency was inconclusive: 79.4 µM [inhibitor, single point]. In the case of CCOC(=O)C1=C(c2ccccc2)NC(=S)NC1c1cc([N+](=O)[O-])ccc1OC (centres undefined), the Potency is reported as inconclusive: 79.4 µM [inhibitor, single point]. In the case of CCOC(=O)C(C)On1c(-c2ccccc2)nc2ccc([N+](=O)[O-])cc21 (centres undefined), the Potency is reported as inconclusive: 89.1 µM [inhibitor, single point]. With CC(=O)OCC1=C(C(=O)O)N2C(=O)C(NC(=O)CCn3nc(C(F)(F)F)c(Br)c3C3CC3)C2SC1 (centres undefined) the “activity change, negative = inhibition” value was inactive: -0.252%. With O=C1C2C3CCC(O3)C2C(=O)N1c1cc(OCC(F)F)cc([N+](=O)[O-])c1 (centres undefined) the “activity change, negative = inhibition” value was inactive: 7.3%.
Further: nearly all actives have a fitted effect of over 60% in size.
On the % scale 0 is the no-effect control and ±100 the full control effect; potency means the concentration at half of the fitted maximal effect; tags describe the fitted curve by direction and shape.
